{
  "source": "PubChem BioAssay AID686979",
  "about": "(National Center for Advancing Translational Sciences (NCATS), 2013)",
  "note": "Several values for one entry are separate records, joined by “and”; a condition that tells them apart may be missing. Equal values may be shown once. The whole screen tested about 420,000 compounds, of which about 50,000 (12%) were called active. This list was built around the results that the source calls inconclusive (neither active nor inactive); the mix of calls is not that of the screen. Calls come from the whole dose curve; as a rule, active = well fitted inhibition curve with a large enough effect; inconclusive = small, poorly fitted or top-dose-only effect; inactive = flat fitted curve, though single readings scatter. A potency beside an inconclusive call is a rough fit, not a confirmed value. % is set by controls: 0 for no effect and ±100 for the full control effect; potency is the fitted concentration of half-maximal effect; tags give direction and shape of the fitted curve.",
  "data": [
    {"assay": "qHTS for Inhibitors of human tyrosyl-DNA phosphodiesterase 1 (TDP1): qHTS in cells in presence of CPT; note: nearly all actives have a fitted effect of over 55% in size", "conditions": "chicken DT40 Tdp1-/-;hTDP1 cells + 20 nM CPT, ATP luminescence, 48 h; activity change, negative = growth inhibition: at 46.2 µM (top of the series)", "method_in_brief": "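Chicken DT40 Tdp1-/- cells stably complemented with human TDP1 were seeded at 400 cells/well in medium containing 20 nM camptothecin, exposed to pin-transferred compounds, and grown at 37 °C for at least 48 hr. Viability was read as ATP luminescence.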", "values": [
      {"compound": "CCCC(=O)Nc1nnc(SCC)s1", "activity change, negative = growth inhibition": "inactive: -11.9%"},
      {"compound": "O=C(COC(=O)C12CC3CC(CC(C3)C1)C2)Nc1nccs1", "activity change, negative = growth inhibition": "inactive: -7.57%"},
      {"compound": "CCOC(=O)c1c(-c2ccccc2)oc2ccc(O)c(CN3CCOCC3)c12", "Potency": "active: 23.1 µM"},
      {"compound": "Cc1ccc(-c2nc(N)sc2CC(=O)OCC(=O)NCCC(C)C)cc1", "activity change, negative = growth inhibition": "inactive: -3.1%"},
      {"compound": "COC(=O)c1ccc(C(C(=O)NC2CCCCC2)N(C(=O)Cc2cccs2)C2CC2)cc1", "note": "(centres undefined)", "Potency": "active: 8.2 µM"},
      {"compound": "O=C(O)c1ccccc1N/N=C\\c1ccnc2ccccc12", "Potency": "inconclusive: 13 µM [inhibitor, partial curve]"},
      {"compound": "CC(C)(C)c1ccc(-c2n[nH]c(=S)n2C2CCCC2)cc1", "Potency": "inconclusive: 18.4 µM [inhibitor, single point]"},
      {"compound": "CCCCn1cc(S(=O)(=O)c2ccc(OC)cc2)c(=O)c2cc(F)c(N3CCOCC3)cc21", "Potency": "inconclusive: 25.9 µM [inhibitor, single point]"},
      {"compound": "CCCCN(CCCNC(=O)c1ccc(CS(=O)(=O)c2c(Cl)cccc2Cl)o1)Cc1ccccc1", "Potency": "inconclusive: 20.6 µM [inhibitor, single point]"},
      {"compound": "COc1ccccc1NC(=O)N1CCN(Cc2nc3ccc(C)cc3o2)CC1", "activity change, negative = growth inhibition": "inactive: -19.1%"},
      {"compound": "CC(=O)Nc1ccc(S(=O)(=O)N2CCN(Cc3cccc([N+](=O)[O-])c3)CC2)cc1", "Potency": "inconclusive: 29.1 µM [inhibitor, single point]"},
      {"compound": "Cc1ccc(N2C(=O)c3n[nH]c(C)c3C2c2ccccc2Cl)cc1", "note": "(centres undefined)", "Potency": "inconclusive: 25.9 µM [inhibitor, single point]"},
      {"compound": "COc1ccc(NC(=O)c2cc(C3CCCCN3C(=O)c3ccc(Cl)cc3)on2)c(C)c1", "note": "(centres undefined)", "Potency": "inconclusive: 29.1 µM [inhibitor, single point]"},
      {"compound": "O=C(Nc1cccc(C(=O)NC2CC2)c1)c1ccccc1", "activity change, negative = growth inhibition": "inactive: 5.93%"},
      {"compound": "CO/N=C(\\c1nonc1N)N1CCN(c2ccc(Cl)cc2[N+](=O)[O-])CC1", "Potency": "inconclusive: 23.1 µM [inhibitor, single point]"},
      {"compound": "CCN(CC(=O)NCc1cccs1)C(=O)/C=C/c1cc(Br)ccc1OC(F)F", "Potency": "inconclusive: 23.1 µM [inhibitor, partial curve]"},
      {"compound": "O=C1CC(N2CCN(Cc3ccc4c(c3)OCO4)CC2)C(=O)N1c1cccc(Cl)c1", "note": "(centres undefined)", "activity change, negative = growth inhibition": "inactive: -3.38%"},
      {"compound": "Cn1cc(S(=O)(=O)N2CCCC2)cc1C(=O)N1CCN(c2cccc(Cl)c2)CC1", "Potency": "inconclusive: 18.4 µM [inhibitor, partial curve, poor fit] and inconclusive: 16.4 µM [inhibitor, single point]"},
      {"compound": "Cc1ccc(-c2csc(/C(C#N)=C/Nc3ccc4c(c3)OCCO4)n2)cc1", "Potency": "inconclusive: 29.1 µM [inhibitor, single point]"},
      {"compound": "N#Cc1c(NC(=O)CN2CCN(C(=O)c3ccco3)CC2)sc2c1CCCCC2", "Potency": "inconclusive: 18.4 µM [inhibitor, single point]"},
      {"compound": "COC(=O)C1=C(C(=O)OC)[C@@H]2N(C)c3ccccc3[C@@]23C[C@@H](C(=O)OC)N(C(=O)c2ccc(Br)cc2)C3=N1", "Potency": "inconclusive: 29.1 µM [inhibitor, single point]"},
      {"compound": "COc1ccc(C(=O)C2CCN(C(=O)c3ccc(C)cc3)CC2)cc1", "Potency": "inconclusive: 29.1 µM [inhibitor, single point]"},
      {"compound": "O=C(c1cc(C(F)(F)F)cc(C(F)(F)F)c1)N1CCC2(CCCN(c3ncccn3)C2)CC1", "Potency": "inconclusive: 29.1 µM [inhibitor, single point]"},
      {"compound": "COc1ccccc1NC(C)C(=O)Nc1ccc(C(C)=O)cc1", "note": "(centres undefined)", "Potency": "inconclusive: 18.4 µM [inhibitor, partial curve]"},
      {"compound": "COc1ccc(-n2c(SCC(=O)NCc3ccco3)nnc2-c2c[nH]c3ccccc23)cc1", "Potency": "inconclusive: 20.6 µM [inhibitor, single point]"},
      {"compound": "Cc1ccc(S(=O)(=O)N2CCCCC2)cc1C(=O)N(C)CC(=O)Nc1ccc(Cl)c(C(F)(F)F)c1", "Potency": "inconclusive: 25.9 µM [inhibitor, single point]"},
      {"compound": "Cn1c(N)c(C(=O)CSc2nnc(C3CC3)n2Cc2ccccc2)c(=O)[nH]c1=O", "activity change, negative = growth inhibition": "inactive: -20.4%"},
      {"compound": "Cc1ccccc1OCc1nc2ccccc2n1Cc1ccccc1Cl", "Potency": "inconclusive: 29.1 µM [inhibitor, single point]"},
      {"compound": "COc1ccc(CNC(=O)CCCn2nc(C)c3c(C)n(-c4ccc(C)cc4)nc3c2=O)cc1", "Potency": "inconclusive: 25.9 µM [inhibitor, single point]"},
      {"compound": "O=C(Nc1ccccc1C(=O)N1CCN(c2cccc(Cl)c2)CC1)C1=CSCCO1", "activity change, negative = growth inhibition": "inactive: 11.4%"},
      {"compound": "Cc1ccc(S(=O)(=O)NC(c2ccccc2)C(C)C(=O)n2nc(C)cc2C)cc1", "note": "(centres undefined)", "Potency": "inconclusive: 18.4 µM [inhibitor, single point]"},
      {"compound": "CCCCCCNC(=O)OC12CN(C(=O)OC(C)C)N(C(=O)OC(C)C)CC1(O)CN(S(=O)(=O)c1ccc(C)cc1)C2", "note": "(centres undefined)", "Potency": "inconclusive: 29.1 µM [inhibitor, single point]"},
      {"compound": "CCOC(=O)Cn1nc(NC(=O)c2ccc3c(c2)OCO3)cc1C", "Potency": "inconclusive: 29.1 µM [inhibitor, single point]"},
      {"compound": "NC(=O)C1CCN(C(=O)c2cn(-c3ccccc3)nc2-c2cccnc2)CC1", "activity change, negative = growth inhibition": "inactive: -0.311%"},
      {"compound": "CC(=O)c1ccc(NC(=O)CSc2cn(CC(=O)N(C(C)C)C(C)C)c3ccccc23)cc1", "Potency": "inconclusive: 18.4 µM [inhibitor, single point]"},
      {"compound": "CCOC(=O)c1c(C)n(C)c2ccc(OC)c(NC(=O)CN3CCC(C(=O)OCC)CC3)c12", "Potency": "inconclusive: 29.1 µM [inhibitor, single point]"},
      {"compound": "CC(=O)C(=Cc1cn(-c2ccccc2)nc1-c1ccccc1)C(C)=O", "Potency": "active: 23.1 µM"},
      {"compound": "Cc1ccc(CN2CC(C(=O)N3CC=C(c4ccccc4)CC3)CC2=O)cc1", "note": "(centres undefined)", "Potency": "inconclusive: 23.1 µM [inhibitor, single point]"},
      {"compound": "O=S(=O)(c1ccc(Br)cc1)N1CCN(c2nc(-c3ccccc3)nc3ccccc23)CC1", "Potency": "inconclusive: 35.5 µM [inhibitor, single point]"},
      {"compound": "Cc1ccc(C(=O)N/C(=C\\c2ccc(Br)cc2)c2nc(=S)[nH][nH]2)cc1", "Potency": "inconclusive: 29.1 µM [inhibitor, single point]"},
      {"compound": "CCCCN1C(=O)C(O)(CC(=O)c2ccco2)c2cc(Br)ccc21", "note": "(centres undefined)", "Potency": "active: 2.59 µM"},
      {"compound": "COc1cccc(/C=N/n2c(COc3ccccc3)n[nH]c2=S)c1", "activity change, negative = growth inhibition": "inactive: -4.37%"},
      {"compound": "C=C[C@@H]1c2cc(C)ccc2N(S(=O)(=O)c2ccc(C)cc2)[C@H](c2ccccc2)C1(C#N)S(=O)(=O)c1ccccc1", "note": "(some centres undefined)", "Potency": "inactive and inconclusive: 4.47 µM [inhibitor, full curve]"},
      {"compound": "CS(=O)(=O)N1CCC2(CC1)CN(Cc1ccccc1)C2", "activity change, negative = growth inhibition": "inactive: -3.76%"},
      {"compound": "O=C(COc1ccccc1)Nc1nc2cc3c(cc2s1)OCO3", "Potency": "inconclusive: 6.51 µM [inhibitor, single point]"},
      {"compound": "CCCOc1cccc(C2c3c(-c4ccccc4O)n[nH]c3C(=O)N2Cc2ccco2)c1", "note": "(centres undefined)", "Potency": "inconclusive: 23.1 µM [inhibitor, single point]"},
      {"compound": "CC(C)CCn1c(Oc2ccccc2F)nc2c1c(=O)n(C)c(=O)n2C", "Potency": "active: 18.4 µM"},
      {"compound": "CC1=C(C(=O)Nc2ccccc2C(=O)NC2CCCCC2C)SCCO1", "note": "(centres undefined)", "Potency": "inconclusive: 29.1 µM [inhibitor, single point]"},
      {"compound": "COc1ccc(C(=O)N2CCC[C@@]3(CCN(c4ncccn4)C3)C2)cc1", "activity change, negative = growth inhibition": "inactive: 6.58%"},
      {"compound": "CC(c1ccccc1)N1C(=O)c2ccc(C(=O)NCc3ccco3)cc2C1=O", "note": "(centres undefined)", "Potency": "inconclusive: 32.6 µM [inhibitor, single point]"},
      {"compound": "CCS(=O)(=O)N1CCc2cc(C(=O)Nc3cccc(C(C)=O)c3)ccc21", "Potency": "inconclusive: 29.1 µM [inhibitor, single point]"},
      {"compound": "CCOC(=O)C1CCCN(C2CC(=O)N(c3ccc(N4C(=O)CC(N5CCCC(C(=O)OCC)C5)C4=O)cc3)C2=O)C1", "note": "(centres undefined)", "Potency": "inconclusive: 29.1 µM [inhibitor, single point]"},
      {"compound": "CC1(Oc2ccc(Cl)cc2)CCN(Cc2cccn2-c2nccs2)C1", "note": "(centres undefined)", "Potency": "inconclusive: 29.1 µM [inhibitor, single point]"},
      {"compound": "Cn1c(=O)n(CC(=O)O)c(=O)c2c1nc1n2CCCN1CCc1ccccc1", "activity change, negative = growth inhibition": "inactive: 1.92%"},
      {"compound": "COc1cccc(CN(C)C(=O)c2ccc(C)c(S(=O)(=O)N3CCCCC3)c2)c1", "Potency": "inconclusive: 23.1 µM [inhibitor, single point]"},
      {"compound": "O=C(Nc1ncc2c(n1)CC(c1ccc(Cl)cc1)CC2=O)c1ccco1", "note": "(centres undefined)", "Potency": "inconclusive: 29.1 µM [inhibitor, single point]"},
      {"compound": "C#CC[N+]1(CC#Cc2cccc3ccccc23)CCOCC1", "Potency": "inconclusive: 29.1 µM [inhibitor, single point]"},
      {"compound": "O=C(/C=C/c1ccccc1)c1ccccn1", "Potency": "active: 23.1 µM"},
      {"compound": "CCNC(=O)C1(C)CCN(C(=O)c2ccc(-c3ccccc3)cc2)C1", "note": "(centres undefined)", "Potency": "active: 16.4 µM"},
      {"compound": "Cc1ccc(C)c(N2CCN(C(=O)CCCCn3c(=O)[nH]c4ccccc4c3=O)CC2)c1", "Potency": "active: 16.4 µM"},
      {"compound": "Cc1[nH]nc(-c2ccc(O)cc2O)c1-c1nc2ccccc2s1", "Potency": "inconclusive: 29.1 µM [inhibitor, single point]"},
      {"compound": "O=C(CSc1nc(-c2ccco2)cc(C(F)(F)F)n1)Nc1ccccc1C(F)(F)F", "Potency": "inconclusive: 29.1 µM [inhibitor, single point]"},
      {"compound": "CCCCN(CCCNC(=O)Cn1nc(CC)n2c(cc3sc(C)cc32)c1=O)Cc1ccccc1", "Potency": "inconclusive: 16.4 µM [inhibitor, single point]"},
      {"compound": "COc1ccc(-c2cc(C(=O)OCC(=O)N(C)C)c3ccccc3n2)cc1", "Potency": "inconclusive: 25.9 µM [inhibitor, single point]"}
    ]}
  ]
}
